35 molecules from the supplement of paper PMC4723716 can be followed below.

The subject of the test is Plasmodium falciparum NF54 stage V gametocytes. Nature of the test: viability index relative to DMSO control (fraction); higher = less gametocyte killing. Conditions: 2.5 µM, incubation time: 72 h. The gist of the method: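 P. falciparum NF54 stage V gametocytes in serum-free screening medium (0.75% gametocytemia, 1.25% hematocrit, 10 µl) were incubated with compound at 2.5 µM in 1,536-well plates for 72 hr at 37°C under low oxygen. Then 3 µl of 2.5 µM MitoTracker Red CMXRos plus 0.13% saponin was added for one to two hours. One field per well was imaged, 20–70 µm2 red particles were counted, and the viability index was the count divided by the plate mean of DMSO wells.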

Setting [1] is: library set: Broad Institute DOS.

The structures appear in SMILES notation. ± gives the uncertainty stated by the source. Whole data set: some 9,900 compounds, median “viability index relative to DMSO control” near 1, cut for the lowest 2% near 0.85. The list shows a part of the results.

In turn, `CC(C)C(=O)Nc1ccc2c(c1)C(=O)N(C)[C@H]1CC[C@H](CC(=O)Nc3ccc(Cl)cc3)O[C@@H]1CO2` displayed a viability index under setting [1] of 1.07 ± 0.048. On the same count and under the same terms, the figure for `COc1ccc2c3c([C@H](CO)N(CC4CC4)C[C@]33CN(C3)S(=O)(=O)c3cn(C)cn3)n(C)c2c1` is 0.946 ± 0.015; for `CCCNC(=O)N(Cc1cccnc1)C[C@H]1N[C@H](CO)[C@@H]1c1ccccc1` it is 1.021 ± 0.0074.

`C[C@@H]1CN([C@H](C)CO)C(=O)c2cc(NS(=O)(=O)c3cn(C)cn3)ccc2O[C@@H](C)CCCCO[C@H]1CN(C)C(=O)Nc1ccc(C(F)(F)F)cc1` had a viability index under setting [1] of 1.14 ± 0.021. Under setting [1], `CNC[C@H]1OCCCC[C@H](C)Oc2ccc(NC(=O)Nc3ccc(OC)cc3)cc2C(=O)N([C@H](C)CO)C[C@H]1C` displayed a viability index of 1.02 ± 0.052.

`COc1ccc2c3c([nH]c2c1)[C@H](CO)N(Cc1cc(OC)cc(OC)c1)C[C@]31CN(C1)C(=O)Nc1c(C)noc1C` came in with a viability index under setting [1] of 1.03 ± 0.025. As to `C[C@@H]1CN([C@@H](C)CO)C(=O)c2cc(-c3ccncc3)cnc2O[C@@H]1CN(C)C(=O)CN1CCOCC1`, the viability index under setting [1] came to 1.02 ± 0.04. Take `C[C@@H]1CCCCO[C@H](CN(C)S(C)(=O)=O)[C@@H](C)CN([C@H](C)CO)C(=O)c2cc(NC(=O)NC3CCCCC3)ccc2O1`: the viability index under setting [1] was determined as 1.11 ± 0.12. Still for that read-out and setting: the figure for `COCC(=O)Nc1ccc2c(c1)OC[C@@H](C)N(C(=O)Nc1ccccc1F)C[C@@H](C)[C@H](OC)CN(C)C2=O` is 0.996 ± 0.056; for `O=C(NC[C@H]1N[C@H](CO)[C@@H]1c1ccc(-c2ccccc2)cc1)c1cccc(F)c1` it is 1 ± 0.041.

Molecule `Cc1cccc(-c2ccc([C@@H]3[C@@H](CO)N4CCCCN(S(=O)(=O)c5ccccc5F)C[C@H]34)cc2)c1` yielded a viability index under setting [1] of 0.537 ± 0.053.

Turning to `C[C@@H]1CN([C@H](C)CO)C(=O)c2ccccc2-c2ccccc2CO[C@H]1CN(C)C(=O)Nc1cccc(C(F)(F)F)c1`, the viability index under setting [1] turned out to be 0.918 ± 0.11. The molecule `O=C(Nc1ccc2c(c1)[C@@H]1C[C@@H](CC(=O)N3CCCCC3)O[C@H](CO)[C@@H]1O2)NC1CCCCC1` returned a viability index under setting [1] of 1.06 ± 0.057. Same read-out and setting: the figure for `C[C@H]1CN([C@@H](C)CO)C(=O)c2cccc(NC(=O)C3CCOCC3)c2O[C@H]1CN(C)C(=O)Nc1cccc2ccccc12` is 1 ± 0.068; for `COc1ccccc1S(=O)(=O)N1CC[C@@H]2[C@H](CO)Nc3ccc(-c4ccc(C#N)cc4)cc3[C@@H]21` it is 1.029 ± 0.008. Still for that read-out and setting: then `COc1cccc(-c2cn(CC[C@@H]3CC[C@H](NS(=O)(=O)c4ccccc4Cl)[C@H](CO)O3)nn2)c1`, with 1.04 ± 0.025.

With `C[C@@H]1CN([C@H](C)CO)C(=O)c2cc(NC(=O)Cn3cnnn3)ccc2O[C@@H]1CN(C)Cc1ccc(C(=O)Nc2ccccc2N)cc1`, the viability index under setting [1] was determined as 0.985 ± 0.063. `C[C@@H]1CCCCO[C@@H](CN(C)C(=O)C2CCCCC2)[C@@H](C)CN([C@H](C)CO)C(=O)c2cc(NS(=O)(=O)c3ccccc3)ccc2O1` came in with a viability index under setting [1] of 0.927 ± 0.072.

Turning to `O=C(c1ccccc1F)N1CC(=O)N2[C@H](C1)[C@@H](c1ccc(-c3cccnc3)cc1)[C@@H]2CO`, for the setting “library set: Broad Institute Blood Stage”, the viability index was found to be 0.866 ± 0.049. `O=C(C[C@H]1CC[C@@H]2NC[C@H](O)COC[C@H]2O1)Nc1ccc(-c2ccccc2)cc1`: the viability index under setting [1] was found to be 1.0439 ± 3.9e-05.

Under setting [1], `O=C(Nc1ccccc1)[C@H]1[C@H](CO)[C@H]2Cn3c(cccc3=O)[C@@H]1N2C(=O)c1ccc(F)cc1` came in with a viability index of 1.006 ± 0.0021. Same read-out and setting: the figure for `C[C@@H](NC(=O)C[C@H]1C=C[C@H](NS(=O)(=O)c2cccc(F)c2)[C@@H](CO)O1)c1ccccc1` is 1.1 ± 0.11; for `C[C@@H]1CN([C@H](C)CO)C(=O)c2cc(NS(=O)(=O)c3ccc(F)cc3)ccc2O[C@H]1CN(C)C(=O)Nc1ccccc1` it is 0.915 ± 0.12.

For `N#C[C@@H]1[C@@H](c2ccccc2C2=CCCCC2)[C@H](CO)N1C(=O)CN1CCOCC1`, the viability index under setting [1] came to 1.1 ± 0.015. Still for that read-out and setting: the figure for `COC(=O)C[C@@H]1CC[C@H]2[C@@H](COC[C@@H](O)CN2S(=O)(=O)c2cn(C)cn2)O1` is 1.03 ± 0.032. On the same count and under the same terms, then `Cc1noc(C)c1NC(=O)Nc1ccc2c(c1)C(=O)N(C)[C@@H]1CC[C@H](CC(=O)N[C@H]3CCN(Cc4ccccc4)C3)O[C@@H]1CO2`, with 1.13 ± 0.03; and `CO[C@@H]1CC[C@@H]2CCOc3ccc(C#N)cc3C(=O)N(C)C[C@H](c3ccccc3)CC(=O)N(C)C[C@@H]1O2`, with 1.067 ± 0.0091. The same measure, in the same setting: the figure for `Fc1cccc(-c2ccc([C@@H]3[C@@H]4CN(Cc5cncnc5)C[C@H]3N4)cc2)c1` is 1.04 ± 0.06; for `CN(C)CC(=O)N1[C@@H]2c3ccc(C4=CCCCC4)c(=O)n3C[C@@H]2[C@@H](CO)[C@@H]1C(=O)Nc1nccs1` it is 0.994 ± 0.048. On to `COc1ccc(CNC(=O)C[C@@H]2C=C[C@H](NC(=O)c3cccc(F)c3)[C@H](CO)O2)cc1`, for which the viability index under setting [1] was 1.06 ± 0.032. On the same count and under the same terms, the figure for `C[C@H](CO)N1C[C@H](C)[C@H](CN(C)Cc2cccc(C(F)(F)F)c2)OCc2cnnn2CCCC1=O` is 1.02 ± 0.019. Regarding `Cc1noc(C)c1NC(=O)Nc1ccc2c(c1)C(=O)N(C)[C@@H]1CC[C@@H](CC(=O)N[C@H]3CCN(Cc4ccccc4)C3)O[C@@H]1CO2`, under setting [1], the viability index turned out to be 1.16 ± 0.083.

In the case of `C[C@@H]1CCCCO[C@@H](CN(C)Cc2ccncc2)[C@@H](C)CN([C@H](C)CO)C(=O)c2cc(NC(=O)Cc3ccccc3)ccc2O1`, the viability index under setting [1] amounted to 1.11 ± 0.023. The same measure, in the same setting: then `Cc1cccc(S(=O)(=O)N2C[C@@H]3[C@H](c4ccccc42)[C@H](CO)N3C(=O)c2ccccc2)c1`, with 1.04 ± 0.042. The same measure, in the same setting: then `C[C@H](CO)N1C[C@H](C)[C@H](CN(C)Cc2ccc(Cl)c(Cl)c2)Oc2ccc(NC(=O)C3CCCCC3)cc2CC1=O`, with 0.993 ± 0.072.
